This passage reports relative growth results from the supplement of paper PMC9446081.

The campaign covered roughly 39,000 compounds. About 220 (0.56%) showed activity. This is one part of the list.
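Also: static incubation at 37 °C against the wild-type strain, values averaged over two biological replicates.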

This experiment relates to Escherichia coli K-12 BW25113. As to the kind of experiment: relative growth (OD600 normalised to plate interquartile mean) (fraction); higher = less growth inhibition, active = 0.2 or less. As to conditions: 50 µM; LB; incubation time: overnight (16-24 h).
With `CC1=NC(=O)C2(CCNCC2)N1`, the relative growth was inactive: 1.01. As for `C[C@H]1CCCCO[C@H](CN(C)CC2CC2)[C@@H](C)CN([C@@H](C)CO)C(=O)c2cc(NC(=O)c3ccccc3)ccc2O1`, the figure is inactive: 1.01.

As for `O=C1c2ccccc2C(=O)c2c(NCCNCCO)ccc(NCCNCCO)c21`, the relative growth was inactive: 1.13. Then `Cc1ccc2c(c1)C(=O)C[C@@H](c1ccc(Cl)cc1Cl)O2`, with inactive: 0.951. As for `CN(C)CC#Cc1ccc([C@@H]2[C@@H](CO)N3CCCCN(C(=O)CN(C)C)C[C@@H]23)cc1`, the figure is inactive: 0.996; as for `C[C@@H]1CN([C@@H](C)CO)C(=O)c2cc(NC(=O)C3CC3)ccc2O[C@@H]1CN(C)C(=O)NC1CCCCC1`, inactive: 0.975; as for `Cc1noc(C)c1NC(=O)Nc1ccc2c(c1)C(=O)N([C@H](C)CO)C[C@H](C)[C@@H](CN(C)C(=O)Cc1ccccc1)OCCCC[C@@H](C)O2`, inactive: 1.02.

With `Cc1onc(C(=O)O)c1[N+](=O)[O-]`, the relative growth was inactive: 0.986. Then `C=CCc1ccc(O[C@@H]2O[C@H](CO[C@@H]3O[C@@H](C)[C@H](O)[C@@H](O)[C@H]3O)[C@@H](O)[C@H](O)[C@H]2O)c(O)c1`, with inactive: 1.02; and `COc1ccc(cc1)CN1C[C@]2(CCN(CC2)C(=O)Nc2cccc(c2)F)c2c([nH]c3cc(ccc23)OC)[C@H]1CO`, with inactive: 1.04; and `Cc1ccc(OC(=O)N(C)C[C@H]2OCc3ccccc3-c3ccccc3C(=O)N([C@@H](C)CO)C[C@H]2C)cc1`, with inactive: 1. Then `C[C@@H]1CCCCO[C@@H](CN(C)C(=O)c2ccccc2)[C@H](C)CN([C@H](C)CO)C(=O)c2cc(NC(=O)Nc3ccc(F)cc3)ccc2O1`, with inactive: 1.03; and `Nn1cc(Br)c(=O)[nH]c1=O`, with inactive: 1.01; and `C[C@H]1CCCCO[C@H](CN(C)Cc2ccc(C(F)(F)F)cc2)[C@@H](C)CN([C@@H](C)CO)C(=O)c2cc(NC(=O)C3CCCCC3)ccc2O1`, with inactive: 1.03. As for `C[C@@H]1CCCCO[C@H](CN(C)C(=O)Nc2ccc(F)cc2)[C@@H](C)CN([C@@H](C)CO)C(=O)c2cc(NC(=O)C3CCCCC3)ccc2O1`, the figure is inactive: 1.03. As for `C[C@@H]1CCCCO[C@H](CN(C)C(=O)Nc2ccc(F)cc2)[C@H](C)CN([C@@H](C)CO)C(=O)c2cc(NC(=O)Nc3ccc(F)cc3)ccc2O1`, the relative growth was inactive: 0.99.

On to `Cc1ccc(S(=O)(=O)N(C)C[C@H]2Oc3ccc(NC(=O)NC(C)C)cc3C(=O)N([C@@H](C)CO)C[C@H]2C)cc1`, for which the relative growth was inactive: 0.986. As for `C[C@@H]1CN([C@@H](C)CO)C(=O)CCCn2nncc2CO[C@H]1CN(C)C(=O)CCCN(C)C`, the figure is inactive: 0.975; as for `C[C@@H]1CCCCO[C@H](CN(C)C(=O)CCCN(C)C)[C@@H](C)CN([C@@H](C)CO)C(=O)c2cc(NC(=O)Nc3cccc4ccccc34)ccc2O1`, inactive: 0.986. Then `C[C@@H]1CN([C@@H](C)CO)C(=O)c2cc(-c3ccncc3)cnc2O[C@@H]1CN(C)S(=O)(=O)c1ccccc1`, with inactive: 1. Then `Cc1noc(C)c1NC(=O)Nc1ccc2c(c1)CC(=O)N([C@@H](C)CO)C[C@H](C)[C@@H](CN(C)C(=O)Nc1cccc3ccccc13)O2`, with inactive: 1.03. Turning to `C[C@@H]1CN([C@H](C)CO)C(=O)Cc2cc(NS(=O)(=O)c3ccc(F)cc3)ccc2O[C@H]1CN(C)S(=O)(=O)c1ccc(F)cc1`, the relative growth is inactive: 0.974. On to `Cc1ccc(S(=O)(=O)Nc2ccc3c(c2)C(=O)N([C@H](C)CO)C[C@H](C)[C@@H](CN(C)CC2CCCCC2)OCCCC[C@@H](C)O3)cc1`, for which the relative growth was inactive: 0.982.

Take `N#Cc1cnc2c(C(N)=O)cnn2c1N`: the relative growth was inactive: 0.971. As for `O=C(C[C@H]1CC[C@H](NS(=O)(=O)c2ccc(F)cc2)[C@@H](CO)O1)N1CCC(Cc2ccccc2)CC1`, the figure is inactive: 0.996; as for `COc1cccc(-c2cn(CC[C@H]3CC[C@@H](NS(=O)(=O)c4ccccc4Cl)[C@@H](CO)O3)nn2)c1`, inactive: 1; as for `C[C@@H]1CCCCO[C@H](CN(C)Cc2ccc(C(=O)O)cc2)[C@H](C)CN([C@H](C)CO)C(=O)c2cc(NC(=O)CCC(F)(F)F)ccc2O1`, inactive: 0.965. As for `CCc1nc2ccc(C(=O)NC3CCN(Cc4ccccc4)CC3)cn2c1N(C)CCN1CCOCC1`, the figure is inactive: 0.997; as for `CC(C)[C@@H]1COCc2cnnn2CCC[C@H](C)C(=O)N[C@H](C(C)C)COCc2cnnn2CCC[C@H](C)C(=O)N1`, inactive: 0.981; as for `C[C@@H]1CN([C@@H](C)CO)C(=O)Cc2cc(NC(=O)Nc3cccc4ccccc34)ccc2O[C@H]1CN(C)Cc1ccc(C(=O)O)cc1`, inactive: 0.983. As for `C[C@H](CO)N1C[C@H](C)[C@H](CN(C)S(=O)(=O)c2cccs2)Oc2ncc(-c3ccccc3)cc2C1=O`, the figure is inactive: 1.01; as for `NC[C@H](c1ccccc1Cl)N1CCOCC1`, inactive: 1; as for `C[C@@H]1CN([C@H](C)CO)C(=O)c2cc(C#CC3(O)CCCC3)cnc2O[C@H]1CN(C)C(=O)Nc1ccc2c(c1)OCO2`, inactive: 0.998. With `C[C@H]1CN([C@@H](C)CO)S(=O)(=O)c2ccc(C#CCN(C)C)cc2O[C@H]1CN(C)Cc1ccncc1`, the relative growth is inactive: 1.04. As for `C[C@@H]1CN([C@@H](C)CO)C(=O)c2cc(NC(=O)Nc3cccc4ccccc34)ccc2O[C@@H](C)CCCCO[C@@H]1CN(C)C(=O)C1CCCCC1`, the figure is inactive: 1.03; as for `C[C@H]1CN([C@@H](C)CO)S(=O)(=O)c2ccc(C#CC3(O)CCCC3)cc2O[C@H]1CN(C)C(=O)Nc1ccc(F)cc1`, inactive: 0.946. As for `O=C(C[C@H]1CC[C@@H]2[C@H](COC[C@@H](O)CN2S(=O)(=O)c2ccc(F)cc2)O1)N[C@H]1CCN(Cc2ccccc2)C1`, the figure is inactive: 0.999; as for `C[C@@H]1CN([C@H](C)CO)C(=O)Cc2cc(NC(=O)Nc3ccc(F)cc3)ccc2O[C@H]1CN(C)S(=O)(=O)c1cn(C)cn1`, inactive: 0.986.

Turning to `O=C(CN1CCOCC1)N[C@H]1CC[C@H](CCNC(=O)Nc2cc(F)ccc2F)O[C@@H]1CO`, the relative growth was inactive: 0.994. As for `C[C@@H]1CN([C@H](C)CO)C(=O)c2cc(NS(=O)(=O)c3cn(C)cn3)ccc2O[C@@H](C)CCCCO[C@@H]1CN(C)CC1CC1`, the figure is inactive: 1.04. As for `C[C@@H]1CN([C@@H](C)CO)C(=O)Cc2cc(NC(=O)CCN3CCOCC3)ccc2O[C@@H]1CN(C)C(=O)NC1CCCCC1`, the figure is inactive: 0.996. Then `Cc1ccc(S(=O)(=O)Nc2ccc3c(c2)CC(=O)N([C@@H](C)CO)C[C@@H](C)[C@H](CN(C)S(=O)(=O)c2c(C)noc2C)O3)cc1`, with inactive: 0.993; and `Cc1ccc(S(=O)(=O)N(C)C[C@@H]2Oc3ccc(NS(=O)(=O)c4ccc(F)cc4)cc3C(=O)N([C@@H](C)CO)C[C@@H]2C)cc1`, with inactive: 1.03; and `COc1ccc2c3c([nH]c2c1)[C@H](CO)N(C[C@]13CN(CC2CCCCC2)C1)C(=O)Nc1cccc(c1)F`, with inactive: 1.01. Regarding `COCC(=O)Nc1ccc2c(c1)C(=O)N(C)C[C@@H](OC)[C@@H](C)CN(Cc1cccc(F)c1)[C@H](C)CO2`, the relative growth was inactive: 0.995. For `C[C@@H]1CCCCO[C@@H](CN(C)S(=O)(=O)c2ccccc2)[C@@H](C)CN([C@@H](C)CO)C(=O)c2cc(NS(=O)(=O)c3cn(C)cn3)ccc2O1`, the relative growth was inactive: 0.993. Take `Cc1cccc(-c2ccc3c(c2)O[C@H](CN(C)Cc2ccc(C(=O)O)cc2)CCN(C(C)C)S3(=O)=O)c1`: the relative growth was inactive: 1.03. Then `C[C@H](CO)N1C[C@H](C)[C@H](CN(C)C(=O)Nc2ccc(C(F)(F)F)cc2)OCCCC[C@H](C)Oc2ccc(NC(=O)Nc3ccccc3)cc2C1=O`, with inactive: 1.03; and `COc1ccc2c3c([nH]c2c1)[C@H](CO)N(Cc1ccc(cc1)Cl)C[C@]13CCN(CCc2ccccc2)CC1`, with inactive: 0.967; and `C[C@@H]1CCCCO[C@H](CN(C)C(=O)C2CCCCC2)[C@@H](C)CN([C@H](C)CO)C(=O)c2cc(NC(=O)Nc3ccccc3)ccc2O1`, with inactive: 0.975. Then `COc1ccc(S(=O)(=O)Nc2ccc3c(c2)C(=O)N([C@H](C)CO)C[C@H](C)[C@H](CN(C)C(=O)Nc2cccc4ccccc24)OCCCC[C@H](C)O3)cc1`, with inactive: 1.01; and `C[C@H]1CN([C@@H](C)CO)S(=O)(=O)c2ccc(C#CCN(C)C)cc2O[C@H]1CN(C)Cc1ccc2c(c1)OCO2`, with inactive: 0.997.

For the compound `COCC(=O)N1CCO[C@@H]2[C@H]1CC[C@H]2OC`, the relative growth is inactive: 1.05. As for `O=C(C[C@@H]1C[C@@H]2c3cc(NS(=O)(=O)c4ccc(F)cc4)ccc3O[C@@H]2[C@H](CO)O1)NCc1ccccc1`, the figure is inactive: 1.02. Then `C[C@@H]1CN([C@@H](C)CO)C(=O)Cc2cc(NC(=O)Cn3cnnn3)ccc2O[C@H]1CN(C)Cc1ccc(C(F)(F)F)cc1`, with inactive: 0.957; and `C[C@H](CO)N1C[C@H](C)[C@H](CN(C)S(=O)(=O)c2ccccc2)Oc2ccc(NS(=O)(=O)c3ccccc3)cc2CC1=O`, with inactive: 1.04; and `O=C(CN1CCOCC1)NCC[C@@H]1CC[C@@H](NC(=O)c2ccccc2F)[C@@H](CO)O1`, with inactive: 1.01.

For `COc1ccc2c3c([nH]c2c1)[C@H](CO)N(C[C@]13CCN(CC1)C(=O)Nc1ccccc1)C(=O)Nc1ccc(cc1)F`, the relative growth was inactive: 1.01. Then `C[C@@H]1CCCCO[C@@H](CN(C)Cc2ccccc2)[C@H](C)CN([C@@H](C)CO)C(=O)c2cc(NS(=O)(=O)c3cccs3)ccc2O1`, with inactive: 0.899; and `CN(C)CC#Cc1ccc([C@@H]2[C@H](CO)N3C(=O)CN(C(=O)c4cccnc4)C[C@@H]23)cc1`, with inactive: 1.
